Single values of this set are uncertain.
test: amyloid nucleation score relative to library mode (yeast Sup35 reporter selection) (log enrichment difference); higher = more amyloid nucleation; sequences are the first 22 residues of the Bri2 peptide extended by up to 12 random residues; conditions: random library (experiment): 1;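 active = nucleation score significantly above 0 at FDR 0.05; inactive = not significantly above 0 or absent from output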
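Further: [psi-pin-] Saccharomyces cerevisiae expressing SupN fusions, induced by 100 µM Cu2SO4, selected 7 d at 30 °C without adenine and uracil, scored by deep sequencing of output versus input.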

Row | Sequence | amyloid nucleation score
1 | EASNCFAIRHFENKFAVETLICVHDA | inactive
2 | EASNCFAIRHFENKFAVETLICYVDPQGRIRMRH | 2.96
3 | EASNCFAIRHFENKFAVETLICAYRGERTSFKIG | 3.99
4 | EASNCFAIRHFENKFAVETLICDRLGKTETCSV | inactive
5 | EASNCFAIRHFENKFAVETLICTNRPSLV | inactive
6 | EASNCFAIRHFENKFAVETLICRFTCDKLFAS | inactive
7 | EASNCFAIRHFENKFAVETLICTDLSNVRFLCKH | 8.42
8 | EASNCFAIRHFENKFAVETLICPHAVVVVVIRKE | 4.5
9 | EASNCFAIRHFENKFAVETLICLGVRFCS | 7.36
10 | EASNCFAIRHFENKFAVETLICVDVTQVGNKGTT | 1.18
11 | EASNCFAIRHFENKFAVETLICVDFVCVRRNEG | 5.12
12 | EASNCFAIRHFENKFAVETLICVVSD | inactive
13 | EASNCFAIRHFENKFAVETLICYCVKLWYSPSYP | inactive
14 | EASNCFAIRHFENKFAVETLICDMLRSLGYEMPE | inactive
15 | EASNCFAIRHFENKFAVETLICDMTSQLYRKSVY | inactive
16 | EASNCFAIRHFENKFAVETLICFYSSSPLGRGIC | inactive
17 | EASNCFAIRHFENKFAVETLICAWVFTISLWRTV | inactive
18 | EASNCFAIRHFENKFAVETLICWKARLGSGQHGG | 3.56
19 | EASNCFAIRHFENKFAVETLICCNVTTAP | 6.69
20 | EASNCFAIRHFENKFAVETLICVMGMVAMLTFKV | 0.0198

Row | Sequence | amyloid nucleation score
21 | EASNCFAIRHFENKFAVETLICMTVNT | inactive
22 | EASNCFAIRHFENKFAVETLICAIASAMVEASAY | inactive
23 | EASNCFAIRHFENKFAVETLICYNEV | 1.28
24 | EASNCFAIRHFENKFAVETLICMDMHVHGRMRLD | inactive
25 | EASNCFAIRHFENKFAVETLICEPGGVMAERGAR | inactive
26 | EASNCFAIRHFENKFAVETLICLSVKDMCRCMMA | 6.51
27 | EASNCFAIRHFENKFAVETLICVNREVEYRGVGR | 0.275
28 | EASNCFAIRHFENKFAVETLICVSRISISVVLG | inactive
29 | EASNCFAIRHFENKFAVETLICDTFYDPVYSTHI | 1.68
30 | EASNCFAIRHFENKFAVETLICLSGMMTDPIRIL | inactive
31 | EASNCFAIRHFENKFAVETLICLSNVTLRDRTQK | 8.57
32 | EASNCFAIRHFENKFAVETLICYRLISRMSRN | 0.42
33 | EASNCFAIRHFENKFAVETLICTLCTVRSEGHVH | 7.15
34 | EASNCFAIRHFENKFAVETLICGIR | inactive
35 | EASNCFAIRHFENKFAVETLICYVW | inactive
36 | EASNCFAIRHFENKFAVETLICVPGFHRLATGLK | inactive
37 | EASNCFAIRHFENKFAVETLICVFAYMNTFVESE | inactive
38 | EASNCFAIRHFENKFAVETLICLFISYMYLYGDG | inactive
39 | EASNCFAIRHFENKFAVETLICTYFVLRPYGHLV | inactive
40 | EASNCFAIRHFENKFAVETLICDLWTFNAMSMNA | inactive

Row | Sequence | amyloid nucleation score
41 | EASNCFAIRHFENKFAVETLICQLETGGHSQCCR | inactive
42 | EASNCFAIRHFENKFAVETLICQCMWMCNMVYAT | -0.295
43 | EASNCFAIRHFENKFAVETLICCPFELR | 6.74
44 | EASNCFAIRHFENKFAVETLICPRRLTLSVAVGL | inactive
45 | EASNCFAIRHFENKFAVETLICQFESMSTHYLSF | inactive
46 | EASNCFAIRHFENKFAVETLICEIQRTWYIHWVL | inactive
47 | EASNCFAIRHFENKFAVETLICATSNSEARVRLG | inactive
48 | EASNCFAIRHFENKFAVETLICYHFPLNMKFELD | inactive
49 | EASNCFAIRHFENKFAVETLICGRCNGSGIDARG | inactive
50 | EASNCFAIRHFENKFAVETLICASLELRSGAASA | inactive
51 | EASNCFAIRHFENKFAVETLICVACGY | 3.64
52 | EASNCFAIRHFENKFAVETLICKGRQC | inactive
53 | EASNCFAIRHFENKFAVETLICAYSMTLFSNGVA | inactive
54 | EASNCFAIRHFENKFAVETLICGGDLEGHVKPFV | 0.606
55 | EASNCFAIRHFENKFAVETLICTNSRS | inactive
56 | EASNCFAIRHFENKFAVETLICFLMNEISELILT | inactive
57 | EASNCFAIRHFENKFAVETLICIQRVCSPEARFR | inactive
58 | EASNCFAIRHFENKFAVETLICGVSGDNYCCSSM | 7.91
59 | EASNCFAIRHFENKFAVETLICVAINWREYLRGS | 3.57

From the supplement of paper PMC12067230
